Results from article PMC11484706, “Phosphorylation-driven epichaperome assembly is a regulator of cellular adaptability and proliferation” (Nature Communications, 2024).

Target: T1, mCherry-HSP90β-S226E, S255E mutant (in mouse ESCs) (UniProt P08238, S226E | S255E)
T1 construct: HSP90β; Expressed beside the endogenous wild-type HSP90; also called mCherry-HSP90β-EE; EE mutant; source: mouse ESCs, transfected (Lipofectamine 3000), in lysate; not shown: mCherry, N-terminal, kept
Test: affinity purification with mass spectrometry; RFP Selector resin with lysates of SILAC-labelled mouse ESCs expressing mCherry-HSP90β EE or AA, 4 °C, 90 min; heavy and light samples immunoprecipitated separately, then combined, SDS-PAGE, quantitative MS
Conditions: partners not purified

T1 sequence (P08238 whole entry S226E/S255E): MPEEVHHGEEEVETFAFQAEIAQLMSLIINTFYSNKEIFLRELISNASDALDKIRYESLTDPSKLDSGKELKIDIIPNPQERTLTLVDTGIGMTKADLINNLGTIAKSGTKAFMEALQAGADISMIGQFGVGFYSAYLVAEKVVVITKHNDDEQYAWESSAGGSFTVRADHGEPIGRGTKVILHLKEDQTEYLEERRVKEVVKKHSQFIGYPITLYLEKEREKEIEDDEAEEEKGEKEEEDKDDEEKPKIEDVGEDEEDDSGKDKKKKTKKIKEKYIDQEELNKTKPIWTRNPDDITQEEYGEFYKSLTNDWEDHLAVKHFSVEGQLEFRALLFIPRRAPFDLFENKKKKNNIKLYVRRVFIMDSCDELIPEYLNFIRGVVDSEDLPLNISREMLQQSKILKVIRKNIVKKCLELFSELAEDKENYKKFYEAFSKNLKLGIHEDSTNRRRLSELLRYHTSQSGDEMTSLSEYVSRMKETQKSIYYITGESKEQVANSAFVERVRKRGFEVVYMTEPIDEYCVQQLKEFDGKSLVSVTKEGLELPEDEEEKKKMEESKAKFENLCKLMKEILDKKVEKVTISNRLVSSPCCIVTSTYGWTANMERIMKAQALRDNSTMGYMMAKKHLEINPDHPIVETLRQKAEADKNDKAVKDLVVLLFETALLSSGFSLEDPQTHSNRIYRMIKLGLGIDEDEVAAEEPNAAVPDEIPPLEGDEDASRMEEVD

B1: Oct4 (natural protein)
chain: not shown
notes: transcription factor Oct4, mouse; source: endogenous, mouse ESC lysate
fold EE:AA (SILAC ratio of co-purified Oct4): 1.4 fold
